Measurements reported in patent US20260116960A1 (SHANGHAI HONGCHENG BIOPHARMACEUTICAL, published 2026).

How the values were obtained:
[1] = target: T1, Biotinylated Human VEGF165 (Acro, Catalog No. VE5-H82Q0) (human, UniProt P15692-4 27-191, biotinylated (site not stated)); test: flow cytometry: antibody titrated on activated human T cells, detected with 2 ug/mL biotinylated human VEGF165 and PE streptavidin
T1 construct: Bought protein; also called Biotinylated-hVEGF165; Biotin-hVEGF165
T1 sequence (looked up): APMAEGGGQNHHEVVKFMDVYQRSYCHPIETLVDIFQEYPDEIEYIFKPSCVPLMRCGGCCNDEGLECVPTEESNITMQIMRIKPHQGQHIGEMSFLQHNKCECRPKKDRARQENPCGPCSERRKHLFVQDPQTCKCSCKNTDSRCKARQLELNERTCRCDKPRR
Procedure: After mixing, incubated at 4° C. for 60 minutes. […] The binding activity was fitted using a four-parameter model, and the EC₅₀ value of each antibody was calculated.

[2] = target: T2, human CTLA-4 on the cell surface (human, UniProt P16410 36-223); test: flow cytometry competition, CHO-hCTLA-4 cells, biotin-human CD80
T2 construct: whole, on cells; also called CHO-hCTLA-4 cells; CHOK1-hCTLA4 cells
Procedure: CHO-hCTLA-4 cells were obtained by trypsin digestion, washed twice with PBS containing 2% FBS (FACS buffer), and resuspended in FACS buffer. 200 μL of the cells were added to a 96-well U-bottom plate, approximately 2×10⁵ cells/well. After centrifugation at 300 g for 5 minutes, the supernatant was discarded. […] After washing three times with FACS buffer, 100 μL/well of 1:800 diluted PE Streptavidin was added and incubated at 4° C. for 50 min. After washing three times with FACS buffer, 150 μL/well of PBS was added to resuspend the cells, and the fluorescence signal was detected on a flow cytometer (BECKMAN COULTER cytoFLEX). The four-parameter model was used to fit the binding activity and the IC₅₀ value of the blocking activity of each antibody was calculated.

[3] = target: T3, human VEGFA 165 protein (human, UniProt P15692-4 27-191); test: cell-based or functional assay
T3 sequence (looked up): T1 sequence (looked up)

[4] = target: T4, human PD-1 on the cell surface (human, UniProt Q15116 25-288); test: flow cytometry competition, 293T-hPD-1 cells, biotin-human PD-L1
T4 construct: whole, on cells; also called cell surface PD-1
Procedure: 50 μL of antibody solution serially diluted 3-fold in FACS buffer was added in triplicate, with a starting concentration of 200 nM. After mixing, incubated at 4° C. for 60 minutes. After washing three times with FACS buffer, 100 μL/well of 1:800 diluted PE Streptavidin was added and incubated at 4° C. for 50 min. After washing three times with FACS buffer, 150 μL/well of PBS was added to resuspend the cells, and the fluorescence signal was detected on a flow cytometer (BECKMAN COULTER cytoFLEX). The four-parameter model was used to fit the binding activity and the IC₅₀ value of the blocking activity of each antibody was calculated.

[5] = target: T5, human PD-1 protein (Acro, Catalog No. PD1-H5221) (human, UniProt Q15116 in part); test: BLI (Octet RED96e), antibody on AHC sensor, antigen as analyte 6.25-100 nM, 1:1 model
T5 construct: Bought protein; also called human PD1-his; not shown: his tag
Procedure: (§1) Octet® RED96e (ForteBio) was used to detect the affinity of trispecific antibodies to human PD-1, CTLA-4 and VEGFA. The specific method was as follows: the AHC Sensor was immersed in PBST (PBS containing 0.02% Tween) buffer for 10 minutes to activate the Sensor. The ligand (antibody to be tested) was diluted to 5 μg/mL with PBST buffer. […] The diluted ligand and analyte were added to the corresponding wells at 200 μL/well in triplicate. Program parameter settings: loading: 180 s, association: 180 s, dissociation: 600 s, regeneration: Gly-HCl pH 1.5, 30s, regeneration 3 times. […] Curve fit acceptance criteria: Full R\hat{ }2≥0.95.

[6] = target: T6, human CTLA-4 protein (Acro, Catalog No. CT4-H52H9) (human, UniProt P16410 36-161); test: as above
T6 construct: Bought protein
Procedure: as §1

[7] = target: T7, human VEGF (ACRO, Catalog No. VE5-H4210) (human, UniProt P15692-4 27-191); test: as above
T7 construct: Analyte of the Octet assay; Bought protein
T7 sequence (looked up): T1 sequence (looked up)
Procedure: as §1

[8] = target: T1, Biotinylated Human VEGF165 (Acro, …); test: sandwich ELISA: antibody titrated on coated human PD1-his, detected with biotinylated hVEGF165 and streptavidin-HRP
[9] = target: T2, human CTLA-4 on the cell surface; test: flow cytometry, CHO-hCTLA-4 cells, batch FACS#4
[10] = target: T2, human CTLA-4 on the cell surface; test: flow cytometry, CHO-hCTLA-4 cells, batch FACS#3
[11] = target: T2, human CTLA-4 on the cell surface; test: flow cytometry competition, 293T-hPD-1-hCTLA-4 cells (PD-1 co-expressed), biotin-human CD80
Procedure: PD-1 and CTLA-4 are co-expressed on functionally exhausted T cells in the tumor microenvironment, and the expression level of PD-1 is higher than that of CTLA-4. […] 200 μL of the cells were added to a 96-well U-bottom plate, approximately 1.4×10⁵ cells/well. After centrifugation at 300 g for 5 minutes, the supernatant was discarded. […] After washing three times with FACS buffer, 100 μL/well of 1:800 diluted PE Streptavidin was added and incubated at 4° C. for 50 min. After washing three times with FACS buffer, 150 μL/well of PBS was added to resuspend the cells, and the fluorescence signal was detected on a flow cytometer (BECKMAN COULTER cytoFLEX). The binding activity was fitted using a four-parameter model, and the IC₅₀ value of the blocking activity of each antibody was calculated.

[12] = target: T8, Biotinylated-hCTLA4 (Acro, Catalog No. CT4-H82E3) (human, UniProt P16410 36-161, biotinylated (site not stated)); test: sandwich ELISA: antibody titrated on coated human PD1-his, detected with biotinylated hCTLA4 and streptavidin-HRP
T8 construct: Bought protein

[13] = target: T9, human VEGF165-his protein (Acro, Catalog No. VE5-H5248) (human, UniProt P15692-4 27-191); test: competitive ELISA, VEGF165-His coated, biotin-human KDR
T9 construct: Bought protein; also called hVEGF165-His; VEGFA; not shown: his tag
T9 sequence (looked up): T1 sequence (looked up)

[14] = target: T4, human PD-1 on the cell surface; test: flow cytometry, 293T-hPD-1 cells, batch FACS#2
Procedure: After centrifugation at 300 g for 5 minutes, the supernatant was discarded. The antibodies were serially diluted 3-fold with FACS buffer to obtain two gradient series solution FACS #1 and FACS #2, with the starting concentration of 200 nM (Table 5, FACS #1) or 100 nM (Table 5, FACS #2, FIG. 2), respectively. Then 100 μL/well was added to a 96-well plate in triplicate, mixed, and incubated at 4° C. for 60 min. The plate was centrifuged and washed three times with FACS buffer. 100 μL/well of 1:800 diluted AF647-anti-hIgG(H+L) (Jackson, Catalog No.: 109-605-003) was added and incubated at 4° C. for 50 minutes. After washing the plate three times with FACS buffer, 100 μL/well of FACS buffer was added to resuspend the cells, and the fluorescence signal was detected on a flow cytometer (BECKMAN COULTER cytoFLEX). The binding activity was fitted using a four-parameter model to calculate the EC₅₀ value of each antibody binding to PD-1.

T2 sequence (P16410 36-223): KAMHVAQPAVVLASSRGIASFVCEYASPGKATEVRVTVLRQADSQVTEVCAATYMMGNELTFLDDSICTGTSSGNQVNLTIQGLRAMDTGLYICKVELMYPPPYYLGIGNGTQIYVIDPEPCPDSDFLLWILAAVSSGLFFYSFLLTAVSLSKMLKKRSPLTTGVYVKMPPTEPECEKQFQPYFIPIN
T4 sequence (Q15116 25-288): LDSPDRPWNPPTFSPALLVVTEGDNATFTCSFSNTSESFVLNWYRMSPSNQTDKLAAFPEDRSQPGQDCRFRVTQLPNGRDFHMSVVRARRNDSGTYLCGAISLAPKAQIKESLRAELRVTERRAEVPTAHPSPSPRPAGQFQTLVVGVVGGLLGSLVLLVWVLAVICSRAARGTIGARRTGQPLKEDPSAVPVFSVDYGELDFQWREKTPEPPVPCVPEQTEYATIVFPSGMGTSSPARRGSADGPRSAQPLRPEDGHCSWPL

B1: HC010-F23 (trispecific antibody, human IgG4 S228P, kappa)
heavy: EVQLVESGGGLVQPGGSLRLSCAASGFTFSSYGMSWVRQAPGKCLEWVSTISGGGRDTYYPDSVKGRFTISRDNSKNTLYLQMNSLRAEDTAVYYCARQNGITWFADWGQGTLVTVSSGGGGSGGGGSGGGGSGGGGSDIQMTQSPSSLSASVGDRVTITCRASESVDNYGISFMNWYQQKPGKAPKLLIYAASNQGSGVPSRFSGSGSGTDFTLTISSLQPEDFATYYCQQSKEVPWTFGCGTKVEIKGGGGSGGGGSGGGGSGGGGSEVQLLESGGGLVQPGGSLRLSCAASGSIFSINHMAWYRQAPGKQRELVAGVNSRGTTNYVDSVKGRFTISRDNSKNTLYLQMNSLRAEDTAVYYCRALGGAVAAWGQGTLVTVSSGGGGSGGGGSGGGGSGGGGSEVQLVESGGGLVQPGGSLRLSCAASGYTFTNYGMNWVRQAPGKGLEWVGWINTYTGEPTYAADFKRRFTFSLDTSKSTAYLQMNSLRAEDTAVYYCAKYPHYYGSSHWYFDVWGQGTLVTVSSASTKGPSVFPLAPCSRSTSESTAALGCLVKDYFPEPVTVSWNSGALTSGVHTFPAVLQSSGLYSLSSVVTVPSSSLGTKTYTCNVDHKPSNTKVDKRV[human IgG4 Fc with S228P (EU numbers) not spelt out]
light: DIQMTQSPSSLSASVGDRVTITCSASQDISNYLNWYQQKPGKAPKVLIYFTSSLHSGVPSRFSGSGSGTDFTLTISSLQPEDFATYYCQQYSTVPWTFGQGTKVEIKRTVAAPSVFIFPPSDEQLKSGTASVVCLLNNFYPREAKVQWKVDNALQSGNSQESVTEQDSKDSTYSLSSTLTLSKADYEKHKVYACEVTHQGLSSPVTKSFNRGEC
notes: light: bevacizumab VL-kappa; also called H010-F23
- EC50 [1]: 0.377 nM
- IC50 [2]: 34.8 nM
- IC50, inhibition of VEGFA-induced HUVEC cell proliferation (CellTiter-Glo) [3]: 0.828 nM
- IC50 [4]: 7.4 nM
- Kd [5]: 4.67 nM
- Kd [6]: 1.5 nM
- Kd [7]: 9.55 nM
- EC50 [8]: 0.054 nM
- EC50 [9]: 5.43 nM
- EC50 [10]: 5.43 nM
- IC50 [11]: 0.096 nM
- EC50 [12]: 0.25 nM
- IC50 [13]: 4.91 nM
- EC50 [14]: 2.13 nM

B2: HC010-F22 (trispecific antibody, human IgG4 S228P, kappa)
heavy: EVQLVESGGGLVQPGGSLRLSCAASGYTFTNYGMNWVRQAPGKGLEWVGWINTYTGEPTYAADFKRRFTFSLDTSKSTAYLQMNSLRAEDTAVYYCAKYPHYYGSSHWYFDVWGQGTLVTVSSASTKGPSVFPLAPCSRSTSESTAALGCLVKDYFPEPVTVSWNSGALTSGVHTFPAVLQSSGLYSLSSVVTVPSSSLGTKTYTCNVDHKPSNTKVDKRV[human IgG4 Fc with S228P (EU numbers) not spelt out]AGGGGSGGGGSGGGGSGGGGSEVQLLESGGGLVQPGGSLRLSCAASGSIFSINHMAWYRQAPGKQRELVAGVNSRGTTNYVDSVKGRFTISRDNSKNTLYLQMNSLRAEDTAVYYCRALGGAVAAWGQGTLVTVSSGGGGSGGGGSGGGGSGGGGSEVQLVESGGGLVQPGGSLRLSCAASGFTFSSYGMSWVRQAPGKCLEWVSTISGGGRDTYYPDSVKGRFTISRDNSKNTLYLQMNSLRAEDTAVYYCARQNGITWFADWGQGTLVTVSSGGGGSGGGGSGGGGSGGGGSDIQMTQSPSSLSASVGDRVTITCRASESVDNYGISFMNWYQQKPGKAPKLLIYAASNQGSGVPSRFSGSGSGTDFTLTISSLQPEDFATYYCQQSKEVPWTFGCGTKVEIK
light: B1 light
notes: light: bevacizumab VL-kappa; also called H010-F22
- IC50 [2]: 113 nM
- IC50 [4]: 8.69 nM
- EC50 [9]: 8.92 nM
- IC50 [11]: 0.077 nM
- IC50 [13]: 5.4 nM
- EC50 [14]: 3.44 nM

B3: HC010-F24 (trispecific antibody, human IgG4 S228P, kappa)
heavy: EVQLVESGGGLVQPGGSLRLSCAASGYTFTNYGMNWVRQAPGKGLEWVGWINTYTGEPTYAADFKRRFTFSLDTSKSTAYLQMNSLRAEDTAVYYCAKYPHYYGSSHWYFDVWGQGTLVTVSSASTKGPSVFPLAPCSRSTSESTAALGCLVKDYFPEPVTVSWNSGALTSGVHTFPAVLQSSGLYSLSSVVTVPSSSLGTKTYTCNVDHKPSNTKVDKRV[human IgG4 Fc with S228P (EU numbers) not spelt out]AGGGGSGGGGSGGGGSGGGGSEVQLVESGGGLVQPGGSLRLSCAASGFTFSSYGMSWVRQAPGKCLEWVSTISGGGRDTYYPDSVKGRFTISRDNSKNTLYLQMNSLRAEDTAVYYCARQNGITWFADWGQGTLVTVSSGGGGSGGGGSGGGGSGGGGSDIQMTQSPSSLSASVGDRVTITCRASESVDNYGISFMNWYQQKPGKAPKLLIYAASNQGSGVPSRFSGSGSGTDFTLTISSLQPEDFATYYCQQSKEVPWTFGCGTKVEIKGGGGSGGGGSGGGGSGGGGSEVQLLESGGGLVQPGGSLRLSCAASGSIFSINHMAWYRQAPGKQRELVAGVNSRGTTNYVDSVKGRFTISRDNSKNTLYLQMNSLRAEDTAVYYCRALGGAVAAWGQGTLVTVSS
light: B1 light
notes: light: bevacizumab VL-kappa; also called H010-F24
- IC50 [2]: 36.7 nM
- IC50 [4]: 15.6 nM
- EC50 [9]: 6.5 nM
- EC50 [10]: 6.5 nM
- IC50 [11]: 0.309 nM
- IC50 [13]: 5.87 nM
- EC50 [14]: 7.91 nM
